# Where two headings read alike, the source gives them in different places.
# Columns and labels:
# [1] = test system: 30 protein targets; assay: Panel of 30 diverse targets (summary); settings: 3 μM
# [2] = test system: 30 protein targets
smiles,measurement,setting,value
O=C(C1CC1)N1CCN(Cn2sc3ccccc3c2=O)CC1 [LOC14],binding or inhibition in panel of 30 targets,[1],did not bind to any of the 30 protein targets
same,binding or inhibition in panel of 30 targets,[2],no binding or inhibition to any other targets
